# The supplement of paper PMC11417369
# Some of the results follow.
# System: PF3D7_0420300 AP2 domain 1 (GST-tagged)
# Assay: gcPBM binding intensity (ln(normalized median fluorescence intensity)); higher = stronger DNA binding
# Method in brief: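 DNA-binding domains from P. falciparum, fused to GST and produced in E. coli, were put on an Agilent 4 × 180k double-stranded probe array for 1 h in 1× PBS holding 1% milk, 0.2 mg/ml BSA, 0.5% salmon testes DNA and 0.03% Triton X-100. Probes were primer-extended, 36 bp long and drawn from intergenic genomic regions, with negative controls included. After Alexa488 anti-GST antibody detection and a 488 nm scan, binding intensity was set as the highest Masliner-normalised natural-log median intensity across replicate spots of either probe orientation.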
row,Sequence,gcPBM binding intensity (ln)
1,TTTTATTATAATAATTGTACAAAAATTATTTAATAT [XGTACX_site6054],8.92
2,TTAATTTATTATCTTTGTACACAATTAAAAAAAAAA [XGTACX_site3469],8.79
3,ATAAATATACATTATACCGACCATGTGGATATTATA [XGTACX_negctrl_site241],9.37
4,AAAAAAAAAAAAAAAAGTACAAGCATTGCGTTTTAA [XGTACX_site6075],9.08
5,GTATATATATACCATTGTACTTTCGTAAAAATATTT [XGTACX_site4846],9.35
6,AAAAAAAAAAAAAAAACACACATACACGCACGCACA [CACACA_site7569],9.72
7,AGAAAAAAAAAAAAAAAAATATATATATATATATAT [TGCATGCA_negctrl_site411],8.89
8,ATGCAAATGTGCATCACACACACTAATGGGTATGTA [CACACA_site2893],9.54
9,GGAATATATATACATACACACATATATATATATATA [CACACA_site1666],9.39
10,AAAAATAATTATTCGTGTACAAAAAAAAAAATATAA [XGTACX_site439],9.27
11,ATTTTTTATGTTAATGCATGCTCATGTGTATTTCAT [TGCATGCA_site751],9.53
12,AGATATTATAAAATATGTACATATATATATATATAT [XGTACX_site2088],9.09
13,TAATTAGATTATTTTTGTACATATTATTATAGGTTA [XGTACX_site2077],9.18
14,AGCTTCATATTATGGAGTACTATTAAAAATAAATAA [XGTACX_site2649],8.86
15,AAATATAACATCATCACACACATATACTTTATATGC [CACACA_site1126],9.79
16,AAAGTAATAATGATTTGTACATATATATATATATAT [XGTACX_site8821],9.18
17,TTATCTTTTTTCGTTTGTACGTAACCATATTACTAT [XGTACX_site8853],9.37
18,ACGATGAATATGTAAAGTACGCAAATGTAACAATAT [XGTACX_site728],9.54
19,GTAGTTACATATAGGGTGCTCCAATAGTTGACCTCG,8.96
20,TCATAGGTTCAAAAGGGTACATTAATACATACATAT [XGTACX_site2236],9.25
21,AAATAAAAAAAGGGAACATGCAATATGTACAAATAT [TGCATGCA_site869],9.67
22,CATATATATTGATATGCACACCTATGTATTGATGTA [CACACA_site8269],9.44

row,Sequence,gcPBM binding intensity (ln)
1,AGCATTTTTCATTTTGCACACATGTTTTATGGGTAT [CACACA_site5839],9.65
2,TCTTTTTTCTTTTTTTCACACATTATTTTTTAAATA [CACACA_site5197],9.54
3,TATATGGAAAATTAAAGTACTAAAGAATAAATAGAA [XGTACX_site8796],9.35
4,TATAAAATAAATTGTGCACACATATTTATAAATATG [CACACA_site2330],9.49
5,TATAGATACATATACACACACACACCGACATATATA [CACACA_site9138],10.3
6,AATAATAGAAGCACCCACCCACCACCACCCACACAT [CACACA_negctrl_site1033],11.1
7,GAGAAACTTGTTTAAACATGCACAAAAAAAAAAAAA [TGCATGCA_site340],8.92
8,AAATTACACATCCATACACACATATTTTTTTTAATT [CACACA_site5242],9.77
9,GTATATATGTATATGTGTACACATATTCTTAACTCA [XGTACX_site309],9.42
10,ATATAAATTGGCAATAGTACATAAAGGCATAGAAAG [XGTACX_site2674],9.69
11,AGCTGAAAAAAAAGCTTGCACACGTATTTGCTTTAT [CACACA_site1512],9.42
12,TTTTTTTGTTATATCCTGCACTTCTTAACTATATTA [GTGCAC_site9807],9.55
13,AATAATAAGAATAACGCATGCACATATAATATAGAA [TGCATGCA_site3],9.7
14,CATATTATATTCTGCTTACACACATATATATATATA [CACACA_site3059],9.79
15,GTTTTTTATATAAGGTGGTCAACATTGTAATGTTAA [XGTACX_site3204],9.17
16,AATATGTAGTAATCAAGTACTAATGTCTTAATTCGG [XGTACX_site308],9.27
17,TAATGATAAATACATACACACAAAAAATGATATATA [CACACA_site7258],9.74
18,TATATCCCTTAGAATACACACCCATATGAGTGTGAA [CACACA_site8965],9.25
19,AATGTAAAATCTTCATATACATTTAAGTCTGTATTT [TGCATGCA_negctrl_site183],9.17
20,ACAAAAATTAAATAAAGTACATTTTTAAAATACGTA [XGTACX_site3880],9.13
21,AAAAGCACAAAAAATACACACACAAAAAATAAAAAA [CACACA_site8545],10.1
22,TTAACAAATAAACACACACACACACCCAAAAAAAAA [CACACA_site8068],10.1
